Assay results reported in the antibiotic and cytotoxicity screens of Wong et al. (2023).
The other results are listed elsewhere or left out.

How the values were obtained:
HSkMC = human skeletal muscle cells; assay: cytotoxicity call (relative viability < 0.9); settings: 10 µM
HepG2 = assay: cytotoxicity call (relative viability < 0.9); settings: 10 µM
S. aureus RN4220 = assay: growth inhibition call (relative growth <= 0.2); settings: 50 µM

SMILES | cytotoxicity call (HSkMC) | cytotoxicity call (HepG2) | growth inhibition call (S. aureus RN4220)
C[C@@](Cc1ccccc1)(NC(=O)CN)c1ccccc1 | inactive | inactive | inactive
C[C@H](CO)N1C[C@H](C)[C@@H](CN(C)S(=O)(=O)c2ccc(F)cc2)Oc2ccc(N(C)C)cc2CC1=O | inactive | inactive | inactive
C[C@@H]1CCCCO[C@@H](CN(C)S(=O)(=O)c2cccs2)[C@@H](C)CN([C@@H](C)CO)C(=O)c2cc(NC(=O)Nc3ccccc3)ccc2O1 | inactive | inactive | inactive
C[C@H](CO)N1C[C@H](C)[C@H](CN(C)C(=O)Nc2ccc(C(F)(F)F)cc2)OCCCC[C@H](C)Oc2ccc(NC(=O)Nc3ccc(F)cc3)cc2C1=O | inactive | inactive | inactive
CCCC(=O)Nc1ccc2c(c1)C(=O)N(C)C[C@@H](OC)[C@H](C)CN(C(=O)Cc1cccnc1)[C@H](C)CO2 | inactive | inactive | inactive
C[C@H]1CCCCO[C@H](CN(C)C(=O)CCCN(C)C)[C@@H](C)CN([C@@H](C)CO)C(=O)c2cc(NS(C)(=O)=O)ccc2O1 | inactive | inactive | inactive
CC=CC(=O)N(CC)c1ccccc1C | inactive | inactive | inactive
C[C@@H]1CCCCO[C@@H](CN(C)S(=O)(=O)c2ccccc2)[C@H](C)CN([C@H](C)CO)C(=O)c2cc(NS(=O)(=O)c3ccc(Cl)cc3)ccc2O1 | inactive | inactive | inactive
C[C@@H]1CCCCO[C@@H](CN(C)C(=O)Nc2ccccc2)[C@H](C)CN([C@@H](C)CO)C(=O)c2cc(NS(=O)(=O)c3ccc(Cl)cc3)ccc2O1 | inactive | inactive | inactive
Cc1ccc(S(=O)(=O)N(C)C[C@H]2Oc3c(NS(C)(=O)=O)cccc3C(=O)N([C@@H](C)CO)C[C@H]2C)cc1 | inactive | inactive | inactive
COc1ccc2cc1Oc1ccc(cc1)CC1c3c(cc4c(c3Oc3cc5c(cc3OC)CCN(C)C5C2)OCO4)CCN1C (centres undefined) | inactive | active | inactive
C[C@H](CO)N1C[C@H](C)[C@H](CN(C)C(=O)Nc2cccc(C(F)(F)F)c2)OCc2cnnn2CCCC1=O | inactive | inactive | active
[N-]=[N+]=NCc1ccccc1C[C@]1(C(=O)NCCN2CCOCC2)COC(c2ccc(OCCCO)cc2)=N1 | inactive | inactive | inactive
Cc1ccccc1S(=O)(=O)N1C[C@H](O)COC[C@H]2O[C@@H](CC(=O)N3CCOCC3)CC[C@@H]21 | inactive | inactive | inactive
C[C@@H]1CCCCO[C@@H](CN(C)C(=O)c2ccncc2)[C@@H](C)CN([C@@H](C)CO)C(=O)c2cc(NS(=O)(=O)c3cn(C)cn3)ccc2O1 | inactive | inactive | inactive
COCCNC(=O)C[C@@H]1C[C@@H]2c3cc(NC(=O)CN(C)C)ccc3O[C@@H]2[C@@H](CO)O1 | inactive | inactive | inactive
C[C@H]1CN([C@@H](C)CO)C(=O)c2cc(NS(=O)(=O)c3cccs3)ccc2O[C@H]1CN(C)S(=O)(=O)c1cn(C)cn1 | inactive | inactive | inactive
O=C(O)[C@@H]1C2C=CC3(O2)C1C(=O)N1CCS[C@H]13 (some centres undefined) | inactive | inactive | inactive
O=C1c2c(O)cc(O[C@@H]3O[C@H](CO)[C@@H](O)[C@H](O)[C@@H]3O)cc2O[C@@H](c2ccc(O)cc2)[C@@H]1O | inactive | inactive | inactive
C[C@@H]1CN([C@H](C)CO)C(=O)Cc2cc(NC(=O)CCCCCC(=O)Nc3ccccc3N)ccc2O[C@@H]1CN(C)Cc1ccc(Cl)c(Cl)c1 | inactive | active | inactive
C[C@@H]1CN([C@H](C)CO)C(=O)c2cc(NC(=O)Cn3cnnn3)ccc2O[C@H]1CN(C)CC1CCCCC1 | inactive | inactive | inactive
C[C@H](CO)N1C[C@H](C)[C@@H](CN(C)Cc2ccncc2)Oc2c(NC(=O)c3ccncc3)cccc2C1=O | inactive | inactive | inactive
C[C@H]1CN([C@@H](C)CO)C(=O)c2cccc(NS(=O)(=O)c3cn(C)cn3)c2O[C@H]1CN(C)Cc1ccc2c(c1)OCO2 | inactive | inactive | inactive
C[C@@H]1CN([C@@H](C)CO)C(=O)c2cc(NC(=O)c3ccccc3)ccc2O[C@@H](C)CCCCO[C@H]1CN(C)Cc1ccccc1 | inactive | inactive | inactive
C[C@H]1CN([C@@H](C)CO)C(=O)c2cc(NC(=O)C3CC3)ccc2O[C@@H]1CN(C)C(=O)NC1CCCCC1 | inactive | inactive | inactive
C[C@@H]1CCCCO[C@H](CN(C)C(=O)NC2CCCCC2)[C@@H](C)CN([C@@H](C)CO)C(=O)c2cc(NC(=O)Nc3ccc(C(F)(F)F)cc3)ccc2O1 | inactive | inactive | inactive
C[C@H]1CN([C@@H](C)CO)C(=O)Cc2cc(NC(=O)Cn3cnnn3)ccc2O[C@@H]1CN(C)S(=O)(=O)c1cccs1 | inactive | inactive | inactive
C[C@H]1CN([C@@H](C)CO)C(=O)c2cc(NC(=O)NC3CCCCC3)ccc2O[C@H]1CN(C)Cc1ccc(C(=O)Nc2ccccc2N)cc1 | inactive | inactive | inactive
